Measurements published in the supplement of paper PMC3334620.
The full ranking holds about 33,000 sequences; the median of “E-score (-0.5 to 0.5)” is about -0.016, and the highest 2% start at about 0.32. The list shows a part of the results.

The sequences below were run against T1, Stp1 (UniProt B3LFK1) (assay: PBM E-score (8-mer binding enrichment) (E-score (-0.5 to 0.5)); higher = stronger / more preferred TF binding; most listed sequences are background and not binding sites). Conditions: protein concentration: 200 nM; construct: GST-full length.
T1 sequence: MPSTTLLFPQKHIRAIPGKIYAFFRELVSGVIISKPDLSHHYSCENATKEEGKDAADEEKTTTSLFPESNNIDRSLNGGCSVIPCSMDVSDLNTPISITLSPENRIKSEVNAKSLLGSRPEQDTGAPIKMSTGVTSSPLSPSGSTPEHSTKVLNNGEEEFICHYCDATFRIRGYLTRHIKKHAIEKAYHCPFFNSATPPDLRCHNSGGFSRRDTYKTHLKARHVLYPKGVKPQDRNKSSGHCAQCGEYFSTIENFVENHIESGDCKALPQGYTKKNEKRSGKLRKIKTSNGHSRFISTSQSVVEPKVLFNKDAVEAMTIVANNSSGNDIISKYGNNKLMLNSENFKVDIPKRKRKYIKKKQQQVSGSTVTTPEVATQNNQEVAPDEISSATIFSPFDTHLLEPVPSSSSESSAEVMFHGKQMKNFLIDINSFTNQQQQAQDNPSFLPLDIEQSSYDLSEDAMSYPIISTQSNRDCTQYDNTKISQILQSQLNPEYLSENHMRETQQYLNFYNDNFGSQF
In short: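 Full-length yeast transcription factors or their DNA-binding domains, GST-tagged and expressed with PURExpress, were applied at about 100-200 nM to universal all-10-mer Agilent arrays. These arrays had been made double-stranded by primer extension on fresh or once-stripped slides. Detection used fluorescent anti-GST, normalisation used masliner, and E-scores for ungapped eight-base words pooled with reverse complements came from the Universal PBM Analysis Suite.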
In the case of TAGGAACA, the “PBM E-score” value was -0.0153. In the case of GCGAAATA, the “PBM E-score” value was 0.112. For AACGCGTC, the “PBM E-score” value was -0.0176. For CAACAGAG, the “PBM E-score” value was -0.0194. AAAACATC was tested, and the “PBM E-score” value was 0.00481. For CTGTGGGC, the “PBM E-score” value was -0.0689. For GGCACCGA, the “PBM E-score” value was 0.356. For CCATACCC, the “PBM E-score” value was -0.144. In the case of CGGAGACA, the “PBM E-score” value was 0.0351. AGGAGGGC was tested, and the “PBM E-score” value was -0.243. For CTGGGAGC, the “PBM E-score” value was -0.274. In the case of CCATTCCA, the “PBM E-score” value was 0.0856. With AAAATTCG the “PBM E-score” value was 0.193. AATCGCGC was tested, and the “PBM E-score” value was 0.246. With CCCCCGGA the “PBM E-score” value was -0.389. With ACCCTTAT the “PBM E-score” value was 0.0536. For CGCGGTGA, the “PBM E-score” value was 0.0941. In the case of GAAGCAAC, the “PBM E-score” value was -0.0277. CTAGTACA was tested, and the “PBM E-score” value was 0.0255. For GGCTATTA, the “PBM E-score” value was 0.223. AGGTGAGA was tested, and the “PBM E-score” value was -0.0297. With ATCCGAAC the “PBM E-score” value was -0.0234. For AGCTTTCC, the “PBM E-score” value was -0.00378. AGAGCCGA was tested, and the “PBM E-score” value was 0.225. For AAACAGCG, the “PBM E-score” value was 0.0786. With GTGGACGA the “PBM E-score” value was -0.00073. ACCACGAA was tested, and the “PBM E-score” value was -0.137. For ACGTGATG, the “PBM E-score” value was -0.0504. CGTACCAA was tested, and the “PBM E-score” value was 0.0997. CTCTGTGA was tested, and the “PBM E-score” value was -0.0746. For ATGGATAA, the “PBM E-score” value was 0.0972. For CATGTAGG, the “PBM E-score” value was -0.00116. AGGGAATC was tested, and the “PBM E-score” value was -0.198. ATAACGAT was tested, and the “PBM E-score” value was -0.129. GACTATTA was tested, and the “PBM E-score” value was 0.0464. For TTTAAAAA, the “PBM E-score” value was 0.0991. In the case of CTCACTGC, the “PBM E-score” value was 0.00787. AGGAAAAC was tested, and the “PBM E-score” value was 0.0148. In the case of ATGGCAGC, the “PBM E-score” value was 0.00395. For CATACGGG, the “PBM E-score” value was 0.224. With CAAGTATA the “PBM E-score” value was -0.137. With CACGGAGG the “PBM E-score” value was -0.0175. For AAATACTG, the “PBM E-score” value was 0.0916. For ACTGCGCG, the “PBM E-score” value was -0.00393. With AGGGAAGA the “PBM E-score” value was -0.0806. For AGCCGTCG, the “PBM E-score” value was 0.25. With AGAGTGGG the “PBM E-score” value was -0.0334. For ACTTCCGC, the “PBM E-score” value was -0.073. For CAGTTGGG, the “PBM E-score” value was -0.0275. In the case of ATAATCGA, the “PBM E-score” value was 0.0249. With CAGTTCCC the “PBM E-score” value was 0.0354. In the case of AGTTTCAC, the “PBM E-score” value was 0.0233. For CGCTGGAC, the “PBM E-score” value was 0.0348. With CAGACTAG the “PBM E-score” value was -0.133. CCATCGAA was tested, and the “PBM E-score” value was -0.0768. For CACCAGTG, the “PBM E-score” value was 0.0209. For ACGGCTGC, the “PBM E-score” value was 0.289. In the case of CTCAGGAG, the “PBM E-score” value was -0.0115. For ACCTGTGG, the “PBM E-score” value was -0.234. In the case of CTATTGCA, the “PBM E-score” value was 0.101. In the case of CGCAGTCA, the “PBM E-score” value was -0.175. With ACATGACT the “PBM E-score” value was -0.113. In the case of ACGCATAC, the “PBM E-score” value was 0.0313. ACCGTCGC was tested, and the “PBM E-score” value was 0.0157. With AAAATGAC the “PBM E-score” value was 0.00804. With ACCCTCGA the “PBM E-score” value was -0.202. For AAGCTGTA, the “PBM E-score” value was 0.134. For ATTGAGCA, the “PBM E-score” value was -0.13. For GTACAAGA, the “PBM E-score” value was -0.041. For AGCTGTTA, the “PBM E-score” value was -0.0528. With CAAATAGA the “PBM E-score” value was 0.0398. With CTCCTAGA the “PBM E-score” value was -0.0773. AGAACCCT was tested, and the “PBM E-score” value was -0.25. For TCCGACGA, the “PBM E-score” value was 0.00954. For TGCGTCAA, the “PBM E-score” value was -0.142. In the case of CAATTCCC, the “PBM E-score” value was -0.024. For CATTGCAC, the “PBM E-score” value was 0.0819. AACCTAGC was tested, and the “PBM E-score” value was -0.264. For CCGTTGGA, the “PBM E-score” value was 0.0306. In the case of AGAGAGAG, the “PBM E-score” value was -0.162. With ATAACCCA the “PBM E-score” value was -0.0713. In the case of GATTGTCA, the “PBM E-score” value was -0.0226. In the case of CGGAGGGC, the “PBM E-score” value was -0.0519. For ACATTAAT, the “PBM E-score” value was 0.0799. In the case of CTTCAATC, the “PBM E-score” value was 0.0211. AAATTCAG was tested, and the “PBM E-score” value was 0.0646. In the case of CCATAGGA, the “PBM E-score” value was -0.0698. In the case of TCCAGGAA, the “PBM E-score” value was -0.158. CTTTTGCA was tested, and the “PBM E-score” value was 0.212. In the case of ACCAATAA, the “PBM E-score” value was 0.178. For CTGCGTAA, the “PBM E-score” value was -0.0102. CACCCAAA was tested, and the “PBM E-score” value was 0.184. With GTCGGAGA the “PBM E-score” value was -0.0754. In the case of ACTGCTGC, the “PBM E-score” value was -0.0596. For TCGCAAGA, the “PBM E-score” value was -0.146. TCCCCTAA was tested, and the “PBM E-score” value was -0.121. In the case of CTTGACGC, the “PBM E-score” value was -0.0146. For AGTCAGCG, the “PBM E-score” value was -0.304. For GAACCACC, the “PBM E-score” value was -0.0044. GTGCAAAA was tested, and the “PBM E-score” value was 0.127. With ATCCAGAG the “PBM E-score” value was 0.0478. In the case of CAGGTATA, the “PBM E-score” value was -0.083. In the case of AAGATAGA, the “PBM E-score” value was 0.0263. CATATCAA was tested, and the “PBM E-score” value was 0.238. In the case of CGCTAGGC, the “PBM E-score” value was 0.0429. With GGCCCCAA the “PBM E-score” value was -0.11. In the case of AAGTCAGG, the “PBM E-score” value was -0.181. For TACGTACA, the “PBM E-score” value was 0.122. For ACTTGCGG, the “PBM E-score” value was -0.085. For ACCAGCTG, the “PBM E-score” value was -0.224. With AGGTACGC the “PBM E-score” value was 0.0567. For GCTTCGCC, the “PBM E-score” value was -0.0679. With CCTTATCG the “PBM E-score” value was 0.105. For AACGCTGG, the “PBM E-score” value was -0.13. With ACGTATTC the “PBM E-score” value was 0.125. With AGCCGAAT the “PBM E-score” value was 0.222. For CTCCCCAC, the “PBM E-score” value was -0.373. With CTAGCGGA the “PBM E-score” value was -0.0753. With GTAAACCA the “PBM E-score” value was -0.0263. With CACGCGGG the “PBM E-score” value was 0.143. With CGAGGCTC the “PBM E-score” value was 0.131. In the case of ATTCGTAG, the “PBM E-score” value was 0.107. In the case of AACCGAGA, the “PBM E-score” value was -0.105. With AGTAATGC the “PBM E-score” value was 0.0704. ATCCTCTA was tested, and the “PBM E-score” value was -0.125. With GGTAAGAA the “PBM E-score” value was -0.318. In the case of ATTTTCAG, the “PBM E-score” value was 0.138. For TCGACAAA, the “PBM E-score” value was 0.0854. In the case of GCTAGCCC, the “PBM E-score” value was -0.29. CCGTGCGC was tested, and the “PBM E-score” value was 0.433. In the case of CGTGTGCC, the “PBM E-score” value was 0.205. With GCAGCCCC the “PBM E-score” value was -0.049. ATGGCGCG was tested, and the “PBM E-score” value was 0.196. AGGAGACC was tested, and the “PBM E-score” value was -0.227. With CATGATGC the “PBM E-score” value was 0.0936. In the case of AACGTCGG, the “PBM E-score” value was -0.227. In the case of ATAGCTTA, the “PBM E-score” value was 0.0278. In the case of ATGGCTAG, the “PBM E-score” value was 0.0312. With CAACTCAG the “PBM E-score” value was -0.0903. With AGATGCAT the “PBM E-score” value was -0.13. For ACCTTACG, the “PBM E-score” value was 0.159. GGATATTA was tested, and the “PBM E-score” value was 0.0838. In the case of GTGTCGTA, the “PBM E-score” value was 0.0455. ACCGGTAA was tested, and the “PBM E-score” value was -0.136. For AATTATTG, the “PBM E-score” value was 0.173. With GAGGAGGA the “PBM E-score” value was -0.334. CCCTGCCG was tested, and the “PBM E-score” value was 0.161. In the case of CTCTCAGA, the “PBM E-score” value was 0.0187. With ACTCGTGG the “PBM E-score” value was -0.0658. For CAGATAAC, the “PBM E-score” value was -0.0126. For CCTATTAA, the “PBM E-score” value was 0.0196. AATATGAC was tested, and the “PBM E-score” value was -0.0274. In the case of AGCCAATG, the “PBM E-score” value was -0.113. With ACCGTTAG the “PBM E-score” value was 0.0519. In the case of CTTAAGCA, the “PBM E-score” value was -0.0469. ATTTCTGC was tested, and the “PBM E-score” value was 0.245. AGAGAGGA was tested, and the “PBM E-score” value was -0.195. With GCCGTACA the “PBM E-score” value was 0.459. With CCCGCATA the “PBM E-score” value was 0.21. For AAACAACC, the “PBM E-score” value was 0.0506. In the case of GTTAGAAA, the “PBM E-score” value was 0.0629. In the case of AAAGAGTT, the “PBM E-score” value was -0.175. GTGAGAAA was tested, and the “PBM E-score” value was 0.128. With CCGCCAAC the “PBM E-score” value was -0.223. In the case of CCACGGGG, the “PBM E-score” value was -0.124. With AACTTGGT the “PBM E-score” value was 0.146. With ACCTCCAT the “PBM E-score” value was -0.119. CCCGTTCG was tested, and the “PBM E-score” value was 0.0486. With AGACTGAA the “PBM E-score” value was -0.0951. For AAAGTCCG, the “PBM E-score” value was -0.0409. In the case of CGTATCAG, the “PBM E-score” value was 0.143. AGAATCGA was tested, and the “PBM E-score” value was -0.0411.
